Among the data in the supplement of paper PMC4604168 (melanoma cell lines) are cell count values, retold here.

The list shows a part of the results. Single values are uncertain, as repeats are few or missing.
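Further: cells treated in 1,536-well plates, then fixed and DAPI-stained, with nuclei counted from automated high-throughput microscope images.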

For the experiment, the system named is UACC62. The experiment in a line: cell count relative to DMSO control; melanoma cells; higher = more viable cells. The note with it: library dose: standard library concentration; 72 h.
`C=C(c1ccc(C(=O)O)cc1)c1cc2c(cc1C)C(C)(C)CCC2(C)C` [Bexarotene] + Cc1cc([N+](=O)[O-])ccc1NS(=O)(=O)c1cc(Cl)ccc1Cl [FH535] (first compound 10 µM, partner dose 5 µM) had a cell count of 90.4%.

`CCCS(=O)(=O)Nc1ccc(F)c(C(=O)c2c[nH]c3ncc(Cl)cc23)c1F` + COc1cc2c(Oc3ccc4[nH]c(C)cc4c3F)ncnc2cc1OCCCN1CCCC1 [cediranib] (first compound 0.4 µM, partner dose 2 µM) yielded a cell count of 49.1%.

`C=C(c1ccc(C(=O)O)cc1)c1cc2c(cc1C)C(C)(C)CCC2(C)C` [Bexarotene] + CCN(CC)CCCCNc1ncc2cc(-c3cc(OC)cc(OC)c3)c(NC(=O)NC(C)(C)C)nc2n1 [PD173074] (first compound 10 µM, partner dose 0.5 µM) gave a cell count of 110%.

Take `C=C(c1ccc(C(=O)O)cc1)c1cc2c(cc1C)C(C)(C)CCC2(C)C` [Bexarotene] + CC(C)CCN1c2nc(Nc3cc(F)c(O)c(F)c3)ncc2N(C)C(=O)C1C [BID1870] (first compound 10 µM, partner dose 1 µM): the cell count is 66.4%.

Turning to `CS(=O)(=O)c1ccc(C(=O)Nc2ccc(Cl)c(-c3ccccn3)c2)c(Cl)c1` [vismodegib] + O=C(Nc1ccccc1)c1cc([N+](=O)[O-])ccc1Cl [GW9662] (first compound 5 µM, partner dose 10 µM), the cell count stood at 74.2%.

In turn, `CS(=O)(=O)c1ccc(C(=O)Nc2ccc(Cl)c(-c3ccccn3)c2)c(Cl)c1` [vismodegib] + c1cc(-c2cnn3cc(-c4ccc(OCCN5CCCCC5)cc4)cnc23)ccn1 [Dorsomorphin] (first compound 5 µM, partner dose 2 µM) returned a cell count of 60.5%.

With `CN(c1ncccc1CNc1nc(Nc2ccc3c(c2)CC(=O)N3)ncc1C(F)(F)F)S(C)(=O)=O` + O=C1NC(=O)/C(=C/c2ccc(-c3ccc(F)cc3O)o2)S1 [AS252424] (first compound 0.4 µM, partner dose 5 µM), the cell count worked out at 77.5%.

`CS(=O)(=O)c1ccc(C(=O)Nc2ccc(Cl)c(-c3ccccn3)c2)c(Cl)c1` [vismodegib] + CCN(CC)CCCCNc1ncc2cc(-c3cc(OC)cc(OC)c3)c(NC(=O)NC(C)(C)C)nc2n1 [PD173074] (first compound 5 µM, partner dose 0.5 µM) came in with a cell count of 106%.

Compound `C=C(c1ccc(C(=O)O)cc1)c1cc2c(cc1C)C(C)(C)CCC2(C)C` [Bexarotene] + O=c1cc(-c2cccc3c2Sc2ccccc2S3)oc(N2CCOCC2)c1 [KU55933] (first compound 10 µM, partner dose 5 µM) showed a cell count of 81.7%.

For `NC1(c2ccc(-c3nc4ccn5c(=O)[nH]nc5c4cc3-c3ccccc3)cc2)CCC1` + O=c1cc(-c2cccc3c2Sc2ccccc2S3)oc(N2CCOCC2)c1 [KU55933] (first compound 2 µM, partner dose 5 µM), the cell count turned out to be 68.5%.

In the case of `NC1(c2ccc(-c3nc4ccn5c(=O)[nH]nc5c4cc3-c3ccccc3)cc2)CCC1` + COc1cc2ncnc(Nc3ccc(Oc4ccccc4)cc3)c2cc1OC [SrcI1] (first compound 2 µM, partner dose 10 µM), the cell count is 35.2%.

In the case of `CCCS(=O)(=O)Nc1ccc(F)c(C(=O)c2c[nH]c3ncc(Cl)cc23)c1F` + COc1ccc(COc2ccc(Cc3cnc(N)nc3N)cc2OC)cc1 [GW2580] (first compound 0.4 µM, partner dose 5 µM), the cell count turned out to be 60.3%.

As for `CCCS(=O)(=O)Nc1ccc(F)c(C(=O)c2c[nH]c3ncc(Cl)cc23)c1F` + Oc1nc(-c2ccc(C(F)(F)F)cc2)nc2c1CSCC2 [XAV939] (first compound 0.4 µM, partner dose 10 µM), the cell count turned out to be 61.7%.

For the compound `CN(c1ncccc1CNc1nc(Nc2ccc3c(c2)CC(=O)N3)ncc1C(F)(F)F)S(C)(=O)=O` + COc1cc(N2CCC(N3CCN(C)CC3)CC2)ccc1Nc1ncc(Cl)c(Nc2ccccc2S(=O)(=O)C(C)C)n1 [NVP-TAE684] (first compound 0.4 µM, partner dose 0.4 µM), the cell count was found to be 76.9%.

In turn, `CCCS(=O)(=O)Nc1ccc(F)c(C(=O)c2c[nH]c3ncc(Cl)cc23)c1F` + c1cc(-c2cnn3cc(-c4ccc(OCCN5CCCCC5)cc4)cnc23)ccn1 [Dorsomorphin] (first compound 0.4 µM, partner dose 2 µM) displayed a cell count of 49.8%.

`NC1(c2ccc(-c3nc4ccn5c(=O)[nH]nc5c4cc3-c3ccccc3)cc2)CCC1` + O=C1NC(=O)/C(=C/c2ccc(-c3ccc(F)cc3O)o2)S1 [AS252424] (first compound 2 µM, partner dose 5 µM) had a cell count of 60.8%.

Take `CCCS(=O)(=O)Nc1ccc(F)c(C(=O)c2c[nH]c3ncc(Cl)cc23)c1F` + Cc1cc([N+](=O)[O-])ccc1NS(=O)(=O)c1cc(Cl)ccc1Cl [FH535] (first compound 0.4 µM, partner dose 5 µM): the cell count was 51.3%.

In the case of `CN(c1ncccc1CNc1nc(Nc2ccc3c(c2)CC(=O)N3)ncc1C(F)(F)F)S(C)(=O)=O` + CC(C)CCN1c2nc(Nc3cc(F)c(O)c(F)c3)ncc2N(C)C(=O)C1C [BID1870] (first compound 0.4 µM, partner dose 1 µM), the cell count is 90.1%.
